# Data from PubChem BioAssay AID1345083 (National Center for Advancing Translational Sciences (NCATS), 2018).
# “And” between values parts separate entries of the source, which are not always exact repeats. Equal values may be shown once. Hit rate of the full screen: of about 94,000 compounds, about 6,200 (6.6%) were called active. Inconclusive means that the source gave no clear call. Such entries were picked first, then a sample of the others. The call rests on the fitted dose curve; in most records, active means well fitted inhibition curve with a large enough effect; inconclusive means small, poorly fitted or top-dose-only effect; inactive means flat fitted curve, though single readings scatter. Potencies beside an inconclusive call are fits to weak or partial responses and may not hold up.
# Experiment: Cytotoxic Profiling in HEK 293 Cell Line of Diverse Libraries Using Quantitative High-Throughput Screening; further: nearly all actives have a fitted effect of over 60% in size
# Details: HEK 293 viability, ATP luminescence (CellTiter-Glo), 48-72 h; series mostly up to 115 µM
# Method in brief: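 qHTS cytotoxicity; HEK 293, 250 cells/well; compound pinned; 48 or 72 hr, 37 degree Celsius, 5% CO2, 95% humidity; CellTiter-Glo, 10 min RT; luminescence (ATP).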
# Potency means the concentration at half of the fitted maximal effect; tags describe the fitted curve by direction and shape.
row,SMILES,Potency
1,O=C(Cc1cccc(F)c1)N1CCC(c2nc(C3CCOCC3)no2)CC1,"inconclusive: 28.2 µM [inhibitor, partial curve, poor fit]"
2,CC(C)NC(=O)N1CCCN(c2ccc3nnc(C4CC4)n3n2)CC1,inactive
3,COc1ccc(C(=O)N2CC(N3C(=O)c4c(c(C)nn4-c4ccccc4)C3C)C2)cc1 (stereo not drawn),"inconclusive: 89.1 µM [inhibitor, partial curve, poor fit]"
4,CN1CCC([C@@H]2CN(S(=O)(=O)c3ccc4c(c3)CCC4)C[C@H]2C(N)=O)CC1,inactive
5,Cc1noc(C)c1S(=O)(=O)N1CCC(CO)(CCCc2ccccc2)CC1,"inconclusive: 44.7 µM [inhibitor, partial curve, poor fit]"
6,CCCCc1ccc(NC(=O)CN2C(=O)C(c3ccccc3)=NC23CCCC3)cc1,"inconclusive: 31.6 µM [inhibitor, partial curve, poor fit]"
7,Cc1ccc(CN2CCN(c3ncnc4onc(C)c34)CC2CCO)cc1 (stereo not drawn),"inconclusive: 44.7 µM [inhibitor, partial curve, poor fit]"
8,COc1ccc(F)cc1-c1ccc(CN2CCC(NC(C)=O)C2)cc1 (stereo not drawn),"inconclusive: 35.5 µM [inhibitor, partial curve, poor fit]"
9,O=C(Cc1ccc(F)cc1)N1CCN(C(=O)c2nnn3c2COC(c2ccccc2)C3)CC1 (stereo not drawn),inactive
10,O=C(NCCc1ccccc1)C1CCN(Cc2ccccc2-c2ccccc2F)CC1,"inconclusive: 39.8 µM [inhibitor, partial curve, poor fit]"
11,O=C(Cn1ccn2nc(-c3ccccc3)c(CO)c2c1=O)Nc1ccc(Cl)cc1F,inactive
12,COCCN1C(=O)[C@@H]2C[C@@H](CN2Cc2cccnc2)Oc2ccccc21,inactive
13,CC(=O)N1CCn2c(nnc2C2CCCN2Cc2cc(Cl)ccc2F)C1 (stereo not drawn),inactive
14,NCc1ccccc1Oc1ccc(F)c(Cl)c1,"inconclusive: 100 µM [inhibitor, partial curve]"
15,CC1(C)[C@H](Cc2cc(COC(=O)c3cccs3)on2)C[C@@H]1NC(=O)c1cccs1,"inconclusive: 63.1 µM [inhibitor, partial curve, poor fit]"
16,C[S+](=O)([O-])c1cccc(NC(=O)Cc2c[nH]c3ncc(-c4ccccc4)cc23)c1,"inconclusive: 50.1 µM [inhibitor, single point]"
17,CCOC(=O)[C@H]1C[C@]2(CCCCN(CCOC)C2=O)N(C(=O)Cc2ccc(F)cc2)[C@H]1c1ccccc1,"inconclusive: 50.1 µM [inhibitor, partial curve, poor fit]"
18,CCC1CN(c2ccc(-c3nc(-c4ccc(OC)cc4)no3)cn2)CCN1C (stereo not drawn),"inconclusive: 50.1 µM [inhibitor, partial curve, poor fit]"
19,O[C@@H]1C[C@@H](c2nc(Cc3ccc(F)cc3Cl)no2)N(Cc2ccc(OC(F)(F)F)cc2)C1,active: 39.8 µM
20,CCN(CC)C(=O)N1CCCOCCNC(=O)[C@@H]2CCC[C@@H]21,inactive
21,CCc1nc2c(c(-c3ccc(Cl)cc3)n1)CCN(Cc1cccnc1)CC2,"inconclusive: 56.2 µM [inhibitor, partial curve, poor fit]"
22,COc1ccc(CN[C@H]2[C@H](O)[C@@H](N3CCCCC3)[C@@H]3OC[C@H]2O3)cc1,inactive

row,SMILES,Potency
1,Cc1cc(C)cc(-c2ccc(CN3CCCC(N[S+](C)(=O)[O-])C3)cc2)c1 (stereo not drawn),active: 39.8 µM
2,CSCCNC(=O)C1CCCN1c1nc2ncccc2o1 (stereo not drawn),inactive
3,CC(=O)N1CCC2(CC1)CN(C(=O)Cc1csc(N)n1)Cc1ccccc1O2,inactive
4,Cc1nn2c(c1-c1ccccc1-c1ccccc1)N(CCC(C)C)CCC2,active: 7.94 µM
5,O=C(CCCc1ccccc1)N1CC(c2noc(COc3ccccc3)n2)C1,"inconclusive: 50.1 µM [inhibitor, partial curve, poor fit]"
6,O=C([C@@H]1CCCN1c1nccc(Nc2ccccc2Cl)n1)N1CCN(Cc2ccccc2)CC1,"inconclusive: 12.6 µM [inhibitor, full curve, poor fit]"
7,O=C(Cc1ccc(N(Cc2cccc(F)c2)C(=O)c2ccco2)cc1)NCC1CCCO1 (stereo not drawn),"inconclusive: 89.1 µM [inhibitor, single point]"
8,Cc1nc(N2CCC(NC(=O)c3ccc(F)cc3Cl)CC2)cc(C(F)(F)F)n1,"inconclusive: 31.6 µM [inhibitor, full curve, poor fit]"
9,Cc1cc(-c2nc3ncccc3[nH]2)c(C)[nH]1,"inactive and inconclusive: 141 µM [inhibitor, partial curve, poor fit]"
10,O=C(Cc1ccc(Cl)cc1)NCc1nnc2c(-c3nc(C4CC4)no3)cccn12,"inconclusive: 89.1 µM [inhibitor, single point]"
11,COc1ccc(-c2nccc3c(=O)cc(N(C)c4ccccc4)oc23)cn1,"inconclusive: 89.1 µM [inhibitor, partial curve]"
12,Cc1nn2c(c1-c1cccc3cn[nH]c13)N(C(=O)c1cccc(Cl)c1)CCC2,active: 50.1 µM
13,O=C1CC(c2noc(C3CCC3)n2)CN1C1CCCCC1 (stereo not drawn),inactive
14,Cc1ccc(CNC(=O)c2ccc3c(c2)CN(Cc2cncs2)CCO3)cc1,"inconclusive: 50.1 µM [inhibitor, partial curve, poor fit]"
15,NC(=O)Cc1c[nH]c2ncc(-c3ccccc3C(F)(F)F)cc12,"inconclusive: 100 µM [inhibitor, partial curve]"
16,COc1ccccc1Nc1ccnc(N2CCC(NC(=O)c3ccc(F)cc3)CC2)n1,inactive
17,Cc1cnc(C2CCC2)n1CC1CCN(C(=O)C(C)c2ccccc2)CC1 (stereo not drawn),"inconclusive: 89.1 µM [inhibitor, partial curve, poor fit]"
18,O=C(Nc1nccs1)c1ccc2c(c1)OCCN(c1ccccc1)C2,inactive
19,CC(=O)N1CCN(C(=O)c2nc(N)nc3c2CCCC3)CC(O)C1 (stereo not drawn),inactive
20,O=C(Cc1ccc(F)cc1)N1CCC2(CC1)COc1ccccc1[S+](=O)([O-])N2,inactive
21,O=C(NC1CCCCC1)N[C@H]1[C@H](O)[C@@H](Sc2ccccc2)[C@@H]2OC[C@H]1O2,inactive
